Source: article PMC11172314, “Towards Enhanced Tunability of Aqueous Biphasic Systems: Furthering the Grasp of Fluorinated Ionic Liquids in the Purification of Proteins” (International Journal of Molecular Sciences, 2024)
Entries with a single value are a further part of the results.

Target: T1, lysozyme (Lys) (Gallus gallus, UniProt P00698)
T1 construct: Lyophilized lysozyme from chicken egg white, ≥90% purity; purchased Millipore (Darmstadt, Germany); host or cells: chicken egg white (natural source)
Experiment: DSC thermal stability (Tm, ΔH) of lysozyme in water, component solutions and ABS phases
Set-up: species or system chicken
Details: 1.0 mg/mL Lys, 25 mM component in water, several transitions listed singly
Text: Differential scanning calorimetry (DSC) measurements (Section 3) were used to determine the melting temperature ( Tm ) and enthalpy ( Δ H) of lysozyme, at which both the folded and unfolded states coexist at equilibrium. DSC outputs, thermal transitions at the nanoscale level, allow to analyze alterations on proteins structure and stability, providing sharp perceptions of the factors affecting stability, as well as of the folding and unfolding processes. […] (DSC curve depicted in Figure S16 of Supplementary Materials).
FIL (BP#8, BP#10, BP#11, and BP#12). […] For the system based on [C4C1Im][CF3SO3]
The thermal stability of lysozyme was analyzed in water, ABS phase-forming compounds aqueous solutions, and partition ABS phases. […] Partition lysozyme on each phase from the prepared biphasic points as well as recovered protein from the FIL-rich phase were also addressed for a selection of studied systems listed in Table 1. We acquired thermograms using a TA^TM Nano DSC from TA Instruments. All scans were conducted in a 300 μ L capillary cell through a temperature ramp from 20 to 90 °C at a heating rate of 1 °C/min and 3 atm pressure. All samples were degassed for 7 min at 20 °C, with the exception of FIL-containing samples owing to their surfactant properties. […]

T1 sequence (P00698 19-147): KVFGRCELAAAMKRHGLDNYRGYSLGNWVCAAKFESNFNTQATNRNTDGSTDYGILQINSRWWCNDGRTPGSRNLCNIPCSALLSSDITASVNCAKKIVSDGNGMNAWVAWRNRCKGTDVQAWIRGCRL

C[N+](C)(C)CCO.O=S(=O)([O-])C(F)(F)C(F)(F)C(F)(F)C(F)(F)F [[N1112(OH) ][C4F9SO3]]
Lys Tm (first of three DSC transitions): 80.04 °C
Lys Tm (third of three DSC transitions): 86.40 °C
